Experimental data: the supplement of paper PMC3334620
The full ranking holds about 33,000 sequences; the median of “E-score (-0.5 to 0.5)” is about -0.036, and the highest 2% start at about 0.37. This is one part of the list.

target: T1, Yer064c (UniProt P40041); experiment: PBM E-score (8-mer binding enrichment) (E-score (-0.5 to 0.5)); higher = stronger / more preferred TF binding; most listed sequences are background and not binding sites; settings: protein concentration: 200 nM; construct: GST-full length
T1 sequence: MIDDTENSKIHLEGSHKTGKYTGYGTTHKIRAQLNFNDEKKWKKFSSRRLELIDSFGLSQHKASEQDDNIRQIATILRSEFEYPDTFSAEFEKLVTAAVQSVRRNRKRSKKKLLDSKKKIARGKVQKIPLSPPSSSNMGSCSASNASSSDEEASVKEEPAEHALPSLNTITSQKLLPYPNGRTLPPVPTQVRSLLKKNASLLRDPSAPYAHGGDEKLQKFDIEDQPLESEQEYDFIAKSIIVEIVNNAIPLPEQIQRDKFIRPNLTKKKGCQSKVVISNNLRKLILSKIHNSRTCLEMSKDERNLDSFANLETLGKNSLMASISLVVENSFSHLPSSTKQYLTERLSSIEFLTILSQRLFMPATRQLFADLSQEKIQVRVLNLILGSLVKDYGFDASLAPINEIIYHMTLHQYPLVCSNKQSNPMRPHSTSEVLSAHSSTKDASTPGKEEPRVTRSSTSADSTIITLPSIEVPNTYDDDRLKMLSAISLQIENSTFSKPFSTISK
Experimental: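 Universal 'all 10-mer' protein binding microarrays (Agilent AMADID 015681) probed with GST-tagged S. cerevisiae TFs (full-length or DBD) made by in vitro transcription/translation (PURExpress), about 100-200 nM. Bound TF was detected with fluorescent anti-GST. Each ungapped 8-mer (which stands for itself and its reverse complement) is scored by the PBM enrichment score (E-score), a modified Wilcoxon-Mann-Whitney statistic from -0.5 to +0.5, computed with the Universal PBM Analysis Suite. Scale: above 0.35 generally sequence-specific binding.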

Sequence | PBM E-score
GGGTACAC | -0.038
GCGCGTGA | -0.00868
AAAACCAC | -0.108
GACGCTTA | -0.0504
CTCCATAC | -0.0362
ACACTAGG | 0.121
GAAGCTCC | -0.303
CATACAGC | -0.193
CCCAAGCA | -0.123
GCTCCAGC | -0.283
GGGAGCAA | -0.0695
AGTCGTAA | 0.378
GCCACGGC | -0.283
GCCGGAAA | -0.0684
CCCGTATC | -0.298
CTAAGGAG | -0.0683
TAGTCACA | 0.478
GGTTGCAC | 0.0309
GAGCCTCA | -0.141
GAATCTAA | 0.0549
AGCCACTG | 0.202
CATCCTAC | 0.00501

Sequence | PBM E-score
AAAGGAAT | 0.00897
GATAGGGC | -0.227
GCGATTTA | -0.11
AGCTGGCC | -0.208
CCCCCGAA | -0.0804
CTGGTTGC | -0.0671
GGTGGTTA | 0.105
CAGTAGAC | 0.0603
GAATTAAC | 0.0654
AACACAGA | 0.189
CACGGCGC | 0.0195
ACGGCTAT | -0.24
AAAATTGG | -0.165
GGGCTCGA | -0.181
CCGTTGTC | -0.0952
AAAGTCGA | 0.00478
GAGCACGC | -0.163
ACCGTCTA | -0.148
AATCATAC | 0.451
AACACGCT | -0.129
CTGTGTCC | -0.0309
CTTTTCTC | 0.0732

Sequence | PBM E-score
ACTCTAGC | 0.109
AAGATCAG | 0.109
ACTCGGTA | 0.142
TAGCCCTA | -0.205
CCTATTCG | -0.157
CGCGCAGC | -0.0144
CTCTGATA | 0.162
CAAGTCTA | -0.0232
TAGGGCGA | 0.0759
CCTGGTCC | -0.35
TAATGAGA | 0.114
CCCTCCGA | -0.174
AGTGATTA | 0.4
AATCTGAC | 0.23
CATACTTA | 0.137
GGCTCTCA | -0.0821
CGACTATC | 0.359
ATAGAAAT | 0.0519
ATCCCCAA | -0.139
AGGGTGGA | -0.00356
ACTTACGA | 0.149
ATAACCTC | -0.267

Sequence | PBM E-score
CAGTGTAG | 0.14
ATAGTATG | 0.015
CACCCGCC | 0.0896
ACCTCAAA | -0.116
CCCTGGCA | -0.272
TAGGAGGA | 0.076
GAAAAACA | 0.025
CGGGAAGC | -0.234
GGAACTAC | -0.143
CTGGCGCA | -0.219
GCTTTGCA | -0.0407
AAACCGGA | -0.0877
AACCTTTA | 0.0157
CCGTCCTC | -0.281
CTTACGGC | -0.189
AACACCCC | -0.0593
CTTTTAGA | 0.124
GTGCCCAC | -0.23
CCAAGTAA | 0.043
GACACAGC | 0.0285
CCCCCGCC | -0.196
GACGAGTA | 0.178

Sequence | PBM E-score
AGAGTTAT | 0.038
ACGTCTCT | -0.16
AACGCTAG | 0.033
CCATCATC | -0.01
CGATGTCA | -0.0638
AGAACGAG | -0.0266
TCCAGGCA | 0.0611
ATATCAAC | 0.0316
ATATATAT | -0.111
GCTCACAA | 0.0192
CTAGGCTC | -0.262
ACCGCGTG | -0.183
CGTCCAAC | -0.0203
GTCCCGAA | -0.134
AAGACACA | 0.0498
ACCGGGTA | -0.259
AAATATCT | 0.0638
CAGCATGA | 0.267
AGTCGCAG | 0.367
TCCTACAA | -0.0166
GGTTGGAA | -0.31
